Measurements taken from the supplement of paper PMC6089552.
Out of some 3,200 compounds screened, about 300 (9.4%) showed activity. The list shows a part of the results, in another mix than the full data.

System: A673/TR/shEF
Assay: cell viability (LOESS-normalised, relative to median of negative controls) (log2 ratio); higher = more viable cells (less compound effect), active = hit call of the paper (over 3 MAD below the median)
Settings: treatment time: 72 h
Procedure, shortened: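 A673/TR/shEF Ewing sarcoma cells (1,500 per well, 384-well plates) were grown with or without doxycycline to induce EWS-FLI1 shRNA knockdown, starting 24 h before compounds. Library compounds at two or more concentrations, with DMSO controls, were added for three days. Cell viability was read by CellTiter-Glo luminescence on an Envision reader, then LOESS-corrected per plate, divided by the median of negative controls and log2-transformed. Hits were wells at least three median absolute deviations from the median of all screened wells.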

[1] = 0.25 µM, library screen: screen1, EWS-FLI1 expression: high (no doxycycline)
[2] = 0.25 µM, library screen: screen1, EWS-FLI1 expression: low (doxycycline-induced shRNA knockdown)
[3] = 2.5 µM, library screen: screen1, EWS-FLI1 expression: high (no doxycycline)
[4] = 2.5 µM, library screen: screen1, EWS-FLI1 expression: low (doxycycline-induced shRNA knockdown)
[5] = 0.25 µM, library screen: screen2, EWS-FLI1 expression: high (no doxycycline)
[6] = 0.25 µM, library screen: screen2, EWS-FLI1 expression: low (doxycycline-induced shRNA knockdown)
[7] = 2.5 µM, library screen: screen2, EWS-FLI1 expression: high (no doxycycline)
[8] = 2.5 µM, library screen: screen2, EWS-FLI1 expression: low (doxycycline-induced shRNA knockdown)
[9] = 0.103 µM, library screen: screen3, EWS-FLI1 expression: high (no doxycycline)
[10] = 0.103 µM, library screen: screen3, EWS-FLI1 expression: low (doxycycline-induced shRNA knockdown)
[11] = 0.308 µM, library screen: screen3, EWS-FLI1 expression: high (no doxycycline)
[12] = 0.308 µM, library screen: screen3, EWS-FLI1 expression: low (doxycycline-induced shRNA knockdown)
[13] = 0.926 µM, library screen: screen3, EWS-FLI1 expression: high (no doxycycline)
[14] = 0.926 µM, library screen: screen3, EWS-FLI1 expression: low (doxycycline-induced shRNA knockdown)
[15] = 2.8 µM, library screen: screen3, EWS-FLI1 expression: high (no doxycycline)
[16] = 2.8 µM, library screen: screen3, EWS-FLI1 expression: low (doxycycline-induced shRNA knockdown)
[17] = 8.3 µM, library screen: screen3, EWS-FLI1 expression: high (no doxycycline)
[18] = 8.3 µM, library screen: screen3, EWS-FLI1 expression: low (doxycycline-induced shRNA knockdown)
[19] = 25 µM, library screen: screen3, EWS-FLI1 expression: high (no doxycycline)
[20] = 25 µM, library screen: screen3, EWS-FLI1 expression: low (doxycycline-induced shRNA knockdown)
[21] = 0.025 µM, library screen: screen1, EWS-FLI1 expression: high (no doxycycline)
[22] = 0.025 µM, library screen: screen1, EWS-FLI1 expression: low (doxycycline-induced shRNA knockdown)
[23] = 25 µM, library screen: screen1, EWS-FLI1 expression: high (no doxycycline)
[24] = 25 µM, library screen: screen1, EWS-FLI1 expression: low (doxycycline-induced shRNA knockdown)

Measured: cell viability (log2)

O=C(O)c1cc(O)c2c(c1)[C@@H]([C@H]1c3cc(C(=O)O)cc(O)c3C(=O)c3c(O[C@@H]4O[C@H](CO)[C@@H](O)[C@H](O)[C@H]4O)cccc31)c1cccc(O[C@@H]3O[C@H](CO)[C@@H](O)[C@H](O)[C@H]3O)c1C2=O
inactive: [1] 0.0389 | [2] 0.0283 | [3] 0.0965 | [4] 0.0542

CC1(C2CCCC2)Cc2cc(OCC(=O)O)c(Cl)c(Cl)c2C1=O (configuration not stated)
inactive: [5] 0.0571 | [6] 0.0595 | [7] 0.163 | [8] 0.131

CO[C@H]1O[C@@H]2O[C@@]3(C)CC[C@H]4[C@H](C)CC[C@@H]([C@H]1C)[C@@]24OO3
inactive: [9] -0.0159 | [10] 0.0141 | [11] 0.079 | [12] 0.077 | [13] 0.0497 | [14] 0.0228 | [15] 0.0263 | [16] 0.0639 | [17] 0.0475 | [18] 0.128 | [19] 0.102 | [20] 0.0938

Cc1ccccc1CN1CCN(Cc2ccco2)CC1
inactive: [1] 0.12 | [2] 0.0129 | [3] 0.0799 | [4] -0.0931

N=C1C=CC(=C(c2ccc(N)cc2)c2ccc(N)cc2)C=C1
active: [1] -0.412 | [2] -0.563 | [3] -3.76 | [4] -3.35

COc1cc2ncc(-c3ccccc3)nc2cc1OC
inactive: [21] 0.165 | [22] -0.00441 | [1] 0.202 | [2] 0.0199 | [5] 0.139 | [6] 0.0671 | [3] -0.0715 | [4] 0.188 | [7] 0.212 | [8] 0.201 | [24] 0.175
active: [23] -0.157

OC[C@@H](O)C(O)[C@H](O)CO
inactive: [1] 0.179 | [2] 0.0545 | [3] 0.145 | [4] 0.0215

COc1cc(O)c2c(=O)c(O)c(-c3ccc(O)c(O)c3)oc2c1
inactive: [1] -0.00867 | [2] 0.0259 | [3] 0.0453 | [4] 0.0969

CC(=O)NO
inactive: [1] 0.0521 | [2] 0.00845 | [3] 0.104 | [4] 0.202

CC(N)(Cc1ccc(O)c(O)c1)C(=O)O (configuration not stated)
inactive: [5] 0.178 | [6] 0.0804 | [7] 0.0937 | [8] 0.102

CC(C)(Oc1ccc(Cl)cc1)C(=O)O
inactive: [1] 0.146 | [2] 0.0417 | [3] 0.186 | [4] 0.0422

CN1CCCN=C1COC(=O)C(O)(c1ccccc1)C1CCCCC1 (configuration not stated)
inactive: [1] 0.0812 | [2] -0.00447 | [3] 0.0266 | [4] 0.0104

CSc1ccc(C(=O)c2[nH]c(=O)[nH]c2C)cc1
inactive: [5] 0.128 | [6] 0.0675 | [7] 0.157 | [8] 0.089

CC(C)(S)[C@@H](N)C(=O)O
inactive: [1] 0.127 | [2] -0.0401 | [3] 0.158 | [4] 0.139

CO[C@H]1C[C@H](O[C@H]2[C@H](C)[C@@H](O[C@@H]3O[C@H](C)C[C@H](N(C)C)[C@H]3OC(C)=O)[C@@H](C)C[C@@]3(CO3)C(=O)[C@H](C)[C@@H](OC(C)=O)[C@@H](C)[C@@H](C)OC(=O)[C@@H]2C)O[C@@H](C)[C@@H]1OC(C)=O
inactive: [1] 0.146 | [2] -0.0307 | [3] 0.205 | [4] 0.063

COc1ccc2c(c1)CC[C@@H]1[C@@H]2CC[C@]2(C)[C@@H](NCCCCCCN3C(=O)C=CC3=O)CC[C@@H]12
inactive: [5] 0.132 | [6] 0.0029 | [7] 0.104 | [8] 0.128

CC(C)N1C(=O)C(=C2C(=O)N(C)c3ccccc32)SC1=S
inactive: [1] 0.0638 | [2] 0.00946 | [3] 0.0618 | [4] 0.138

NCC1CCC(C(=O)O)CC1 (configuration not stated)
inactive: [1] 0.00336 | [2] 0.0452 | [3] 0.0249 | [4] 0.138

CC(C)(C)n1nc(-c2ccc(Cl)cc2)c2c(N)ncnc21
active: [3] -0.388 | [23] -0.453
inactive: [21] 0.227 | [22] -0.0277 | [1] 0.174 | [2] 0.0475 | [4] 0.0249 | [24] -0.00123

CCCCCCCCCCC[C@@H](C[C@@H]1OC(=O)[C@H]1CCCCCC)OC(=O)[C@H](CC(C)C)NC=O
inactive: [9] 0.0583 | [10] 0.00452 | [1] -0.0226 | [2] 0.0354 | [11] 0.0475 | [12] 0.11 | [13] -0.01 | [14] 0.0194 | [4] 0.178 | [15] -0.0124 | [16] 0.136 | [17] -0.103 | [18] -0.0203 | [19] -0.119 | [20] -0.0365
active: [3] -0.116

S=C(Nc1ccccc1)Nc1nccs1
inactive: [5] 0.0659 | [6] 0.111 | [7] 0.0734 | [8] 0.0848

CC(=O)N[C@@H](CC(=O)O)C(=O)O
inactive: [1] 0.166 | [2] 0.0323 | [3] 0.113 | [4] -0.0432

O=C1O[C@H](CO)[C@@H](O)[C@H](O)[C@H]1O
inactive: [1] 0.0849 | [2] 0.0934 | [3] 0.14 | [4] 0.0928

COc1cc(C/C=C/c2ccccc2)c(OC)cc1O
inactive: [1] 0.135 | [2] 0.0292 | [3] 0.0659 | [4] 0.128

CN1CCC(=C2c3ccccc3CC(=O)c3sccc32)CC1
inactive: [1] 0.205 | [2] 0.03 | [5] 0.22 | [6] 0.105 | [3] 0.214 | [4] 0.187 | [7] 0.09 | [8] 0.143

COc1ccccc1N1CCN(CC(O)COc2cccc3ccccc23)CC1 (configuration not stated)
inactive: [9] 0.000176 | [10] 0.0198 | [5] 0.158 | [6] 0.0891 | [11] 0.0232 | [12] 0.0219 | [13] 0.0654 | [14] 0.0336 | [7] 0.173 | [8] 0.0627 | [15] 0.0333 | [16] -0.000649 | [17] 0.0714 | [18] 0.0523 | [19] -0.00126 | [20] 0.031

CC[C@H](CC[C@@H](C)[C@H]1CC[C@H]2[C@@H]3CC=C4C[C@@H](O)CC[C@]4(C)[C@H]3CC[C@]12C)C(C)C
inactive: [1] 0.124 | [2] 0.0474 | [3] 0.11 | [4] 0.122

COc1cc(OC)c(C2NC(=S)NC(C)=C2C(=O)Nc2cccc(Cl)c2)cc1OC (configuration not stated)
inactive: [1] 0.0501 | [2] 0.0639 | [3] 0.0887 | [4] 0.0905

CC(=O)NCCc1c[nH]c2ccc(O)cc12
inactive: [1] 0.044 | [2] -0.00702 | [5] -0.0254 | [6] 0.142 | [3] 0.159 | [4] 0.048 | [7] 0.205 | [8] 0.269

CC(=O)Oc1c(Cl)c(C)c2c(c1Cl)OC(=O)c1c(C)c(Cl)c(OC(C)=O)c(Cl)c1O2
inactive: [1] 0.0776 | [2] 0.0649 | [3] 0.0636 | [4] -0.0345

O=c1ccc2ccc(O)c(O)c2o1
inactive: [1] 0.103 | [2] 0.0493 | [5] 0.167 | [6] 0.0609 | [3] 0.12 | [4] 0.132 | [7] 0.0434 | [8] 0.106

O=C1Cc2c([nH]c3ccc([N+](=O)[O-])cc23)-c2ccccc2N1
active: [7] -0.122 | [8] -0.312
inactive: [5] 0.0426 | [6] 0.0802

CC1=C2C(O)C(=O)OC3CC4C(C)(C)C(=O)CCC4(C)C(CC1)C23C (configuration not stated)
inactive: [1] 0.149 | [2] 0.0333 | [3] 0.0817 | [4] 0.166

N#C/C(=C\c1ccc(O)c(O)c1)C(N)=O
inactive: [21] 0.246 | [22] 0.0278 | [2] 0.0878 | [4] 0.0598 | [24] 0.125
0.319: [1]
active: [3] -0.381 | [23] -0.224

CC(C)(C)C(=O)OCOP(=O)(COCCn1cnc2c(N)ncnc21)OCOC(=O)C(C)(C)C
inactive: [9] -0.0455 | [10] 0.0657 | [11] -0.0326 | [12] 0.0345 | [13] -0.105 | [14] -0.0287 | [16] -0.0209 | [18] -0.0516
active: [15] -0.371 | [17] -0.686 | [19] -1.44 | [20] -0.304

O=S(=O)(c1cccc2c(I)cccc12)N1CCCNCC1
inactive: [21] 0.188 | [22] -0.167 | [1] 0.201 | [2] -0.255 | [5] 0.178 | [6] 0.133 | [4] -0.111 | [7] 0.0746 | [8] 0.0593
active: [3] -0.248 | [23] -0.335 | [24] -0.197

CS(=O)(=O)CCNCc1ccc(-c2ccc3ncnc(Nc4ccc(OCc5cccc(F)c5)c(Cl)c4)c3c2)o1
inactive: [9] 0.145 | [10] 0.0528 | [11] 0.146 | [12] 0.112 | [13] 0.139 | [14] 0.114 | [15] 0.0651 | [16] 0.113 | [17] 0.0899 | [18] 0.0389 | [19] 0.0387 | [20] 0.0962
